The list shows a part of the results. Sequences were assembled here from the parent chain. Inactive controls read about 0.05.
B1: TEV protease; numbered along this chain (parent)
chain: MGESLFKGPRDYNPISSSICHLTNESDGHTTSLYGIGFGPFIITNKHLFRRNNGTLVVQSLHGVFKVKDTTTLQQHLVDGRDMIIIRMPKDFPPFPQKLKFREPQREERICLVTTNFQTKSMSSMVSDTSCTFPSGDGIFWKHWIQTKDGQCGSPLVSTRDGFIVGIHSASNFTNTNNYFTSVPKNFMELLTNQEAQQWVSGWRLNADSVLWGGHKVFMVKPEEPFQPVKEATQL

Variants of: B1
Test: raw area under fraction-flipped curve 0-4 h after induction (AUC4h, not background-subtracted), DNA-recorder readout of cleavage of the substrate (dimensionless); higher = more cleavage of the substrate by the protease variant
Details: temperature: 34 °C; time window: 0-4 h after rhamnose induction
Experimental: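 In vivo DNA recorder in E. coli TOP10(DE3) ΔrhaA at 34 °C. Each TEVp single-site mutant (parent TEVp 0) is paired with a single-site variant of the 7-mer TEVs (canonical ENLYFQ|S). The substrate sits between flexible linkers in a Bxb1-sfGFP-TEVs-SsrA fusion, so cleavage stabilises Bxb1 and speeds flipping of a recombination array, read by NGS. The value is the raw area under the fraction-flipped curve over 0-4 h after rhamnose induction (AUC4h), with ≥20 reads per time point. It is not background-subtracted; inactive controls average about 0.047.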
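Further: Bxb1 expression induced with 0.2% (w/v) L-rhamnose at OD600 near 0.5, cultures sampled hourly, flipped fraction per protease–substrate barcode pair counted by paired-end Illumina sequencing.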

Variant	area with substrate ENLAFQS	area with substrate ENLCFQS	area with substrate ENLDFQS	area with substrate ENLEFQS	area with substrate ENLFFQS	area with substrate ENLHFQS	area with substrate ENLKFQS	area with substrate ENLNFQS	area with substrate ENLPFQS	area with substrate ENLQFQS	area with substrate ENLSFQS	area with substrate ENLTFQS	area with substrate ENLVFQS	area with substrate ENLWFQS	area with substrate ENLIFQS	area with substrate ENLRFQS	area with substrate ENLGFQS	area with substrate ENLLFQS	area with substrate ENLMFQS
S26K	0.0597	0.0564	0.0707	0.0525	0.0626	0.0657	0.07	0.0561	0.0785	0.0678	0.0586	0.0816	0.0694	0.0682					
D27K	0.0662	0.0731	0.0592		0.103		0.0697	0.0651	0.0515	0.0562	0.072				0.0811	0.0725			
D27Q	0.0724	0.0451	0.0408		0.0727	0.0645	0.0655	0.0597	0.0407	0.0675	0.0644	0.0583			0.0709	0.0729	0.06	0.0711	
G28C	0.0545	0.0634	0.0568	0.0568	0.0869	0.0582	0.0702		0.0576	0.0595					0.0666	0.0511	0.076		0.0615
H29A	0.0652	0.0779	0.0565	0.052	0.0656	0.0703	0.066	0.0596	0.0621	0.0902	0.0569		0.0836	0.083		0.0774		0.0857	0.0685
H29D	0.0646	0.0692	0.0546	0.0816	0.094	0.0527	0.0781	0.0745	0.056	0.0714	0.0802		0.0781	0.0686			0.0214		0.086
H29E	0.0718		0.0524	0.0836		0.0649	0.0878	0.0596	0.0663		0.0726		0.0895		0.113			0.0737	
H29R	0.069		0.0633	0.0721	0.08		0.0816	0.065	0.08	0.0685	0.0609			0.0643		0.0821	0.0618		
T30W	0.0697		0.0469	0.0868	0.0835	0.0966	0.0655	0.0616	0.0479	0.0854	0.0655			0.0795	0.0268	0.0676		0.0822	0.0726
T31F	0.0573	0.058	0.0699	0.0652	0.0899	0.0654	0.0878	0.0665	0.0619	0.0695	0.0675	0.0545	0.0951	0.0672	0.0728	0.0662	0.0688	0.0729	
T31P	0.0464		0.0637	0.0584	0.0351	0.0598	0.0537	0.0547	0.038	0.045	0.0757		0.0643				0.0868	0.0651	
L33P	0.0545	0.0498	0.0539	0.037	0.0486	0.0577	0.048	0.0447	0.0479	0.0459	0.0606		0.0515	0.0431	0.046			0.0496	0.0514
I36A	0.0527	0.0461	0.0599	0.0606	0.0592	0.0587	0.0496	0.0569	0.0536	0.0561	0.0604		0.0569		0.0652	0.055		0.0514	0.0309
I36E	0.0522	0.0527	0.0501	0.0484	0.045	0.0493	0.0459	0.0508	0.0451	0.0525	0.0544		0.0415	0.0424		0.0345	0.0462	0.0626	0.0756
I36R	0.0483	0.046	0.0416	0.0502	0.0491	0.0458	0.0491	0.0421	0.0458	0.0567	0.0381			0.0442	0.0443	0.0461		0.0519	
I36V	0.0604	0.0849	0.0578	0.0513	0.0867	0.0731	0.0634	0.0573	0.0717	0.0637	0.0634		0.0772			0.0707	0.0806	0.0748	0.081
G39Q	0.0397	0.0278	0.044	0.0531	0.0541	0.0444	0.0412	0.0399	0.0366	0.0353	0.0436			0.0474	0.0416			0.0397	0.0288
G39W	0.0481	0.0443	0.0498	0.0488	0.0478	0.0449	0.0507	0.0407	0.053	0.0428	0.0349	0.0534	0.0484	0.044	0.0517	0.0455	0.0349		0.0476
I42C	0.0603	0.0638	0.0591	0.0615	0.0755	0.0704	0.0738	0.0568	0.0524				0.099	0.0577	0.0866	0.0635	0.0442	0.0617	0.0583
I42Y	0.05	0.0471		0.0433	0.0549	0.0395	0.0459	0.0562	0.0589	0.0535	0.0423	0.0513	0.0311	0.0234	0.0782		0.0394	0.0447	
T44D	0.0422	0.0575	0.0492	0.0327	0.043	0.0449	0.0392	0.0589							0.0507	0.0427	0.0505		0.0208
T44K	0.0501		0.0556	0.056		0.0529	0.0523	0.0517	0.0568	0.0615	0.0373		0.0448	0.0483	0.0667				
N45H	0.0664	0.0554	0.0637	0.0614	0.0691	0.0607	0.0651	0.0619	0.0447		0.0605	0.0707		0.0431	0.0744	0.0493	0.0465	0.06	
N45I	0.0491	0.0679	0.0619		0.0434	0.0574	0.0557	0.0456	0.0524	0.0539	0.0525					0.0771	0.0478		0.0673

From the supplement of paper PMC12217912
